This is an account of results in PubChem BioAssay AID2202238 (Ras Initiative Chemistry Research Team, Frederick National …, 2025).

In the test the target is GTPase KRas (Homo sapiens) (UniProt P01116). The test can be described thus: Covalent labelling of cysteine mutants by fragments, read by mass spectrometry (AID 2202238). More on the design: protein at 5 µM with 500 µM competing thiol for 1.5 h. The conditions noted are these: KRAS G12D cysteine mutants, disulfide tethering, MALDI-TOF labeling, stronger effect = higher value, fragment at 500 µM.
UniProt P01116, sequence (P01116 whole entry, looked up, the tested form may be a part): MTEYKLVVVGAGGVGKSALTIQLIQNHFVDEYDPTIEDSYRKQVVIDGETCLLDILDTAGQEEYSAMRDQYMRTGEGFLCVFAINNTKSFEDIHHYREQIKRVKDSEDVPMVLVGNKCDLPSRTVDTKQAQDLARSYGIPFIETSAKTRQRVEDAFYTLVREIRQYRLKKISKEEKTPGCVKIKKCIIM

Setting [1] is: measured here: G75C mutant labeling.
Setting [2] is: measured here: H94C mutant labeling.
Where [3] appears, read: measured here: I36C mutant labeling.
Setting [4] is: measured here: L120C mutant labeling.
[5] abbreviates: measured here: M67C mutant labeling.
The mark [6] stands for this setting: measured here: M72C mutant labeling.
[7] abbreviates: measured here: N86C mutant labeling.
Where [8] appears, read: measured here: P121C mutant labeling.
Setting [9] is: measured here: S122C mutant labeling.
Setting [10] is: measured here: S136C mutant labeling.
[11] abbreviates: measured here: G60C mutant labeling.
The mark [12] stands for this setting: measured here: N26C mutant labeling.

This is one part of the list. Further columns of the screen follow, without active or inactive calls.

For `O=C(CCS)N1CCC(Oc2ccccn2)CC1`, the percent labeling came to 19.5% under setting [1]; 33% under setting [2]; 39.2% under setting [3]; 35.2% under setting [4]; 66.5% under setting [5]; 29% under setting [6]. For the same molecule, the percent labeling came to 28% under setting [7], 39.5% under setting [8], 39.6% under setting [9] and 61.6% under setting [10].
In the case of `O=C(CCS)NCc1cnc2ccc(Br)cn12`, the percent labeling by setting is: under setting [1], 18.8%; under setting [2], 34.4%; under setting [3], 49.4%; under setting [4], 23.6%; under setting [5], 45.3%; under setting [6], 28.2%. In addition, the percent labeling came out at 21.4% under setting [7], 34.2% under setting [8], 27.7% under setting [9] and 46.7% under setting [10].
As to `COc1ccc(C2(NC(=O)CCS)CCC2)cn1`, the percent labeling reads like this: under setting [1], 11.1%; under setting [2], 26.7%; under setting [3], 38.3%; under setting [4], 25.2%; under setting [5], 36.1%; under setting [6], 24.6%. For the same molecule, the percent labeling runs as follows: under setting [7], 19.2%; under setting [8], 32.5%; under setting [9], 33.5%; under setting [10], 47%.
For `Cc1nn(-c2ccc(Cl)cc2)c(C)c1CC(=O)NCCS`, the percent labeling stood at 44% under setting [11]; 22.7% under setting [1]; 31.3% under setting [2]; 23.2% under setting [3]; 22.1% under setting [4]; 26.1% under setting [5]. Moreover, the percent labeling is 33.9% under setting [6]; 40% under setting [12]; 17.2% under setting [7]; 19.7% under setting [8]; 14.8% under setting [9]; 27.8% under setting [10].
`O=C(CCS)NCCc1csc(-c2ccc(Cl)cc2)n1` registered a percent labeling under setting [1] of 14.2%; a percent labeling under setting [2] of 42.2%; a percent labeling under setting [3] of 24.4%; a percent labeling under setting [4] of 15.9%; a percent labeling under setting [5] of 22%; a percent labeling under setting [6] of 38.8%. Further, the percent labeling under setting [7] came to 21.5%, the percent labeling under setting [8] came to 16.4%, the percent labeling under setting [9] stood at 10.4% and the percent labeling under setting [10] came out at 30.2%.
`O=C(CCS)N1CCN(CCn2cccn2)CC1`: the percent labeling is, setting by setting: under setting [1], 7.2%; under setting [2], 23.7%; under setting [3], 31.9%; under setting [4], 21.7%; under setting [5], 32.3%; under setting [6], 10.8%. The molecule also yielded a percent labeling under setting [7] of 21.6%, a percent labeling under setting [8] of 30.3%, a percent labeling under setting [9] of 27.9% and a percent labeling under setting [10] of 49.6%.
Turning to `O=C(CC[C@@H]1CC[C@H](C(F)(F)F)O1)NCCS`, the percent labeling by setting is: under setting [11], 21.6%; under setting [1], 11%; under setting [2], 26.1%; under setting [3], 18.7%; under setting [4], 39.9%; under setting [5], 23.2%. The molecule further gave a percent labeling under setting [6] of 15.8%; a percent labeling under setting [12] of 30.7%; a percent labeling under setting [7] of 22%; a percent labeling under setting [8] of 30%; a percent labeling under setting [9] of 29.5%; a percent labeling under setting [10] of 38.2%.
`CC(C(=O)NCCS)n1ccc(C(F)(F)F)n1` (stereo unspecified): the percent labeling came out at 34.5% under setting [11]; 15.2% under setting [1]; 33.7% under setting [2]; 26.9% under setting [3]; 48.9% under setting [4]; 28% under setting [5]. Further, the percent labeling is 23.8% under setting [6]; 36.3% under setting [12]; 34.3% under setting [7]; 29.5% under setting [8]; 30.2% under setting [9]; 38.9% under setting [10].
With `CN(C(=O)c1ccc(C(=O)NCCS)cc1)c1ccccc1`, the percent labeling under setting [11] is 40.1%; the percent labeling under setting [1] worked out at 20.2%; the percent labeling under setting [2] stood at 26%; the percent labeling under setting [3] stood at 18.2%; the percent labeling under setting [4] is 30.6%; the percent labeling under setting [5] came to 29.8%. The percent labeling stood at 34.5% under setting [6]; 33.7% under setting [12]; 20.5% under setting [7]; 21.2% under setting [8]; 19% under setting [9]; 51.7% under setting [10].
For the molecule `O=C(NCCS)C1(n2cnnn2)CCCCC1`, the percent labeling runs as follows: under setting [11], 35.5%; under setting [1], 17.1%; under setting [2], 28.6%; under setting [3], 24.6%; under setting [4], 31.8%; under setting [5], 27.5%. Further, the percent labeling runs as follows: under setting [6], 33.7%; under setting [12], 36.3%; under setting [7], 35.4%; under setting [8], 31.1%; under setting [9], 29.7%; under setting [10], 41%.
`COc1ccc(C)c2[nH]c(C(=O)NCCS)cc12`: the percent labeling under setting [11] turned out to be 16.2%; the percent labeling under setting [1] is 15.3%; the percent labeling under setting [2] was found to be 8.2%; the percent labeling under setting [3] was found to be 8%; the percent labeling under setting [4] is 13.2%; the percent labeling under setting [5] was found to be 9.5%. Besides, the percent labeling is, setting by setting: under setting [6], 31%; under setting [12], 29.6%; under setting [7], 10.7%; under setting [8], 8.9%; under setting [9], 8.2%; under setting [10], 15.4%.
With `Cn1ccc(N(Cc2ccccc2)C(=O)CCS)n1`, the percent labeling turned out to be 18.7% under setting [1]; 44.7% under setting [2]; 38% under setting [3]; 27.6% under setting [4]; 40.1% under setting [5]; 51.4% under setting [6]. Moreover, the percent labeling runs as follows: under setting [7], 24.4%; under setting [8], 29.8%; under setting [9], 34%; under setting [10], 62.4%.
For `Cn1c(CNC(=O)CCS)cc(=O)n(C)c1=O`, the percent labeling amounted to 7.9% under setting [1]; 22.1% under setting [2]; 35.4% under setting [3]; 27% under setting [4]; 37.4% under setting [5]; 9.8% under setting [6]. Besides, the percent labeling by setting is: under setting [7], 22.6%; under setting [8], 28%; under setting [9], 31.6%; under setting [10], 41.5%.
With `O=C(NCCS)c1cccn1-c1ccc2c(c1)OCCO2`, the percent labeling by setting is: under setting [11], 44.5%; under setting [1], 11%; under setting [2], 28.5%; under setting [3], 20.1%; under setting [4], 19.3%; under setting [5], 19.9%. For the same molecule, the percent labeling by setting is: under setting [6], 38%; under setting [12], 31%; under setting [7], 12.3%; under setting [8], 15.2%; under setting [9], 14.7%; under setting [10], 25.4%.
The molecule `Cc1nn(C)c(N(C)C)c1CNC(=O)CCS` came in with a percent labeling under setting [1] of 11%; a percent labeling under setting [2] of 29.6%; a percent labeling under setting [3] of 34.3%; a percent labeling under setting [4] of 25.7%; a percent labeling under setting [5] of 31.7%; a percent labeling under setting [6] of 19.1%. Also, the percent labeling is, setting by setting: under setting [7], 16.4%; under setting [8], 30.3%; under setting [9], 32.4%; under setting [10], 49.2%.
`O=C(Cn1nc2n(c1=O)CCCCC2)NCCS` came in with a percent labeling under setting [11] of 22%; a percent labeling under setting [1] of 9.7%; a percent labeling under setting [2] of 26.2%; a percent labeling under setting [3] of 26.7%; a percent labeling under setting [4] of 42.4%; a percent labeling under setting [5] of 28.1%. In addition, the percent labeling is, setting by setting: under setting [6], 19.1%; under setting [12], 30.4%; under setting [7], 21.7%; under setting [8], 31.3%; under setting [9], 33.5%; under setting [10], 38.4%.
On to `COc1cc(C(=O)NCCS)cc(OC)c1O`, for which the percent labeling is, setting by setting: under setting [11], 29.1%; under setting [1], 15.9%; under setting [2], 32.3%; under setting [3], 21.7%; under setting [4], 35.4%; under setting [5], 28.9%. The percent labeling runs as follows: under setting [6], 37.5%; under setting [12], 51.6%; under setting [7], 22.9%; under setting [8], 27.2%; under setting [9], 32.5%; under setting [10], 66%.
`Cc1cc(C(=O)NCCS)nn1-c1ccccc1F`: the percent labeling worked out at 28% under setting [11]; 12.8% under setting [1]; 20% under setting [2]; 16.3% under setting [3]; 31.2% under setting [4]; 15% under setting [5]. The percent labeling reads like this: under setting [6], 34.8%; under setting [12], 31.7%; under setting [7], 16.9%; under setting [8], 19.4%; under setting [9], 18.1%; under setting [10], 50%.
As to `O=C(Nc1ccccc1C(=O)NCCS)c1ccccc1`, the percent labeling amounted to 20.7% under setting [11]; 9.6% under setting [1]; 15.9% under setting [2]; 9.6% under setting [3]; 17.7% under setting [4]; 9.1% under setting [5]. The percent labeling by setting is: under setting [6], 24.8%; under setting [12], 25.5%; under setting [7], 11.3%; under setting [8], 13.5%; under setting [9], 7.4%; under setting [10], 12%.
As for `CC1(Cc2cc(Cl)cs2)CCCN1C(=O)CCS` (stereo unspecified), the percent labeling reads like this: under setting [1], 26.9%; under setting [2], 31.6%; under setting [3], 32.8%; under setting [4], 29%; under setting [5], 32.5%; under setting [6], 55.2%. This molecule also yielded a percent labeling under setting [7] of 31%, a percent labeling under setting [8] of 23.9%, a percent labeling under setting [9] of 18.7% and a percent labeling under setting [10] of 46.5%.
Take `O=C1CCC(N2Cc3cc(C(=O)NCCS)ccc3C2=O)C(=O)N1` (stereo unspecified): the percent labeling under setting [11] worked out at 32%; the percent labeling under setting [1] stood at 20.5%; the percent labeling under setting [2] came to 28.1%; the percent labeling under setting [3] was 25.4%; the percent labeling under setting [4] came to 32.3%; the percent labeling under setting [5] was determined as 30.3%. Moreover, the percent labeling reads like this: under setting [6], 45%; under setting [12], 50.4%; under setting [7], 28.7%; under setting [8], 23.8%; under setting [9], 25.1%; under setting [10], 37.2%.
Turning to `O=C(CCS)NC1CC(Cn2cncn2)C1` (stereo unspecified), the percent labeling is, setting by setting: under setting [1], 0%; under setting [2], 30.3%; under setting [3], 41%; under setting [4], 24.7%; under setting [5], 29.4%; under setting [6], 15.6%. In addition, the percent labeling came out at 18.5% under setting [7], 31.9% under setting [8], 30.4% under setting [9] and 47.4% under setting [10].
As to `O=C(CCS)Nc1ccc(=O)n(Cc2ccccc2)c1`, the percent labeling came to 13.7% under setting [1]; 27.9% under setting [2]; 38.3% under setting [3]; 31.3% under setting [4]; 51.3% under setting [5]; 38.1% under setting [6]. Besides, the percent labeling is, setting by setting: under setting [7], 18.9%; under setting [8], 29.8%; under setting [9], 29.6%; under setting [10], 55.4%.
For the molecule `O=C(NCCS)C1CCN(S(=O)(=O)c2ccccc2-c2ccccc2)CC1`, the percent labeling came to 17.2% under setting [11]; 7.6% under setting [1]; 7.9% under setting [2]; 5.3% under setting [3]; 8% under setting [4]; 8.4% under setting [5]. This molecule also displayed a percent labeling under setting [6] of 15.2%; a percent labeling under setting [12] of 22.8%; a percent labeling under setting [7] of 7%; a percent labeling under setting [8] of 9.1%; a percent labeling under setting [9] of 4.4%; a percent labeling under setting [10] of 14.3%.
